# Test results from PubChem BioAssay AID504333 (National Center for Advancing Translational Sciences (NCATS), 2011).
# The campaign covered roughly 360,000 compounds. About 16,000 (4.4%) were called active. Inconclusive means that the source gave no clear call. Such entries were picked first, then a sample of the others. The call rests on the fitted dose curve; in most records, active means well fitted inhibition curve with a large enough effect; inconclusive means small, poorly fitted or top-dose-only effect; inactive means no such curve, though single readings can be large or run the other way. A potency beside an inconclusive call is a rough fit, not a confirmed value.
# Biological target: Bromodomain adjacent to zinc finger domain protein 2B (Homo sapiens) (UniProt Q9UIF8)
# Sequence of UniProt Q9UIF8 (Q9UIF8 whole entry, looked up, the tested form may be a part): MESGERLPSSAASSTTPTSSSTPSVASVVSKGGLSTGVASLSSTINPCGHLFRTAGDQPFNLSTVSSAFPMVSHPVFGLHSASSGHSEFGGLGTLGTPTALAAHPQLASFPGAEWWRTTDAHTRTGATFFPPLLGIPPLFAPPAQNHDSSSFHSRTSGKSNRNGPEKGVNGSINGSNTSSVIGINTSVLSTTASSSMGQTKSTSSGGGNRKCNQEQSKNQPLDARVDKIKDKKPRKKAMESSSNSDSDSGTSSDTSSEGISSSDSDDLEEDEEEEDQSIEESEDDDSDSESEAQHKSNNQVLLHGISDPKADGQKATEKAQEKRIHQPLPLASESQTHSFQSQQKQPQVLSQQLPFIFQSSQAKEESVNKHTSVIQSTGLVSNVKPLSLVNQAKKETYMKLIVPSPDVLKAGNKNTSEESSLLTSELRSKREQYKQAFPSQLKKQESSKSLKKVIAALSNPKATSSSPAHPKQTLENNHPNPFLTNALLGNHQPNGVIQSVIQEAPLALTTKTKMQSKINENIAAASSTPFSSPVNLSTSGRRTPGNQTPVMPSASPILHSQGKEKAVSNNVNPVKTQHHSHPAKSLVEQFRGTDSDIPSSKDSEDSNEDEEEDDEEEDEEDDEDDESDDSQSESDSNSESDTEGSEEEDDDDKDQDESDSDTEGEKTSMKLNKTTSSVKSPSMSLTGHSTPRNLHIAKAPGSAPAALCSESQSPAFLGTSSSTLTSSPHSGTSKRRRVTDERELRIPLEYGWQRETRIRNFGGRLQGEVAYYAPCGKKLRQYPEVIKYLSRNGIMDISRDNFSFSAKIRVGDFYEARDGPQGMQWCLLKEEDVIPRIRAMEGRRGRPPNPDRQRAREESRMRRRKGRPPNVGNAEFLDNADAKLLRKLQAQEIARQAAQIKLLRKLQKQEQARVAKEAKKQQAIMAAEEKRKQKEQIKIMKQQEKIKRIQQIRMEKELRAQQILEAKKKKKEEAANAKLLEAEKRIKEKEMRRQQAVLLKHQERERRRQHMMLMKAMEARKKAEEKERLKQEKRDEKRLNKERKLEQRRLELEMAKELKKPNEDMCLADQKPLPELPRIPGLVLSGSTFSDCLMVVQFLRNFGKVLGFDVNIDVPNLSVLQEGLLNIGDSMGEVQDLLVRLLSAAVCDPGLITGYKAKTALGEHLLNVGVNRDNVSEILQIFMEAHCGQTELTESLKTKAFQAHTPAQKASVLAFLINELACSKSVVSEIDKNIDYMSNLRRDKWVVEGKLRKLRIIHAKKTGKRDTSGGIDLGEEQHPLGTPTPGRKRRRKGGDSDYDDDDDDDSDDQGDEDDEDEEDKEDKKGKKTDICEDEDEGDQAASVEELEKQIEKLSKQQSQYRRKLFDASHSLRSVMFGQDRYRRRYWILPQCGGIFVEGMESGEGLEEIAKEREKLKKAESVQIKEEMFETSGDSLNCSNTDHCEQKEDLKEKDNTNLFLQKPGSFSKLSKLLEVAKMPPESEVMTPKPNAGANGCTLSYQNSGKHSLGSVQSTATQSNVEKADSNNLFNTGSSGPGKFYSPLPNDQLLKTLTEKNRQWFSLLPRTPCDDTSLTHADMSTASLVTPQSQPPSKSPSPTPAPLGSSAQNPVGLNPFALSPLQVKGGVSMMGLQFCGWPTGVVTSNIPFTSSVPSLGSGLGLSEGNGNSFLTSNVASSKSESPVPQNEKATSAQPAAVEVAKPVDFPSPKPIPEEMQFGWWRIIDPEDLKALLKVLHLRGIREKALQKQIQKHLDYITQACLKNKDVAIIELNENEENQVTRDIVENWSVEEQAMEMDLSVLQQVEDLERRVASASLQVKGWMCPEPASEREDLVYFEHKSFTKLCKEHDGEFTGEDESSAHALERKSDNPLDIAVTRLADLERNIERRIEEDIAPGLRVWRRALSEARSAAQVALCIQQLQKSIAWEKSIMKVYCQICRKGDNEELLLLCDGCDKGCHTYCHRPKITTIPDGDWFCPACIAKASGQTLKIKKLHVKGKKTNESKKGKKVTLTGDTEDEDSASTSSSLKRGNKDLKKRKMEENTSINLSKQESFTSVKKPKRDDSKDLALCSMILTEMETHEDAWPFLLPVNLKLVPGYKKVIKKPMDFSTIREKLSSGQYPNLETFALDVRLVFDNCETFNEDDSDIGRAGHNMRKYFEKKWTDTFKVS
# Assay: qHTS Assay for Inhibitors of BAZ2B; further: nearly all actives have a fitted effect of over 60% in size
# Conditions: AlphaScreen BAZ2B-H3K14Ac peptide displacement; series mostly up to 114 µM
# How it was run: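 Inhibition is scored as reduced AlphaScreen emission. The BAZ2B/b-H3(5-23)K14Ac complex (50 nM each) in PBS pH 7.4, 0.01% Tween-20 meets compound (up to 110 uM) for 30 min at RT before bead addition.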
# Potency means the concentration at half of the fitted maximal effect; tags describe the fitted curve by direction and shape.
row,SMILES,Potency
1,Cc1cccc2cc(-c3ccccc3)c(-c3ccccc3)c[n+]12,"inconclusive: 44.7 µM [inhibitor, partial curve]"
2,CCc1ccccc1NC(=O)c1cc2ncc(Br)cn2n1,"inconclusive: 89.1 µM [inhibitor, single point]"
3,O=C(N/C(=C\c1ccccc1)C(=O)N1CCOCC1)c1ccccc1Cl,"inconclusive: 79.4 µM [inhibitor, partial curve]"
4,O=C(NC(NC(=S)Nc1c(Cl)cccc1Cl)C(Cl)(Cl)Cl)c1cccc([N+](=O)[O-])c1 (stereo unspecified),"inconclusive: 79.4 µM [inhibitor, single point]"
5,CSc1cccc(NC(=O)Cn2c3ncccc3c(=O)n2-c2ccc(C)cc2)c1,inactive
6,CCCNc1ncccc1C(N)=O,inactive
7,O=C(CCCc1c[nH]c2ccccc12)NCCc1c[nH]c2ccccc12,"inconclusive: 56.2 µM [inhibitor, partial curve]"
8,O=C(NCc1cccnc1)c1cccc(-c2cc3ccccc3oc2=O)c1,"inconclusive: 100 µM [inhibitor, partial curve]"
9,COc1ccc2c(c1)[nH]c1c(N3CCN(Cc4ccc5c(c4)OCO5)CC3)ncnc12,active: 44.7 µM
10,COc1cccc(C(=O)NCCN2CCN(c3ccccc3)CC2)c1,"inconclusive: 79.4 µM [inhibitor, partial curve]"
11,Cc1csc(C(C#N)C(=O)c2cc3ccccc3o2)n1 (stereo unspecified),"inconclusive: 89.1 µM [inhibitor, single point]"
12,Cc1cc(C)n(C(C)CNS(=O)(=O)c2ccc(Cl)cc2)n1 (stereo unspecified),inactive
13,Nc1ncccc1C(=O)OCC(=O)NC1CCCCCC1,"inconclusive: 79.4 µM [inhibitor, single point]"
14,COc1cc2oc(=O)c(CC(=O)N3CCCCC3)c(C)c2cc1Cl,inactive
15,Cc1ccccc1NC(=O)c1cccc(N2C(=O)C3C4CC(C(Br)C4Br)C3C2=O)c1 (stereo unspecified),inactive
16,COC(=O)C1=C(N)N(c2ccccc2F)C2=C(C(=O)CC(C)(C)C2)C1c1ccc(OC)c(OC)c1 (stereo unspecified),"inconclusive: 89.1 µM [inhibitor, single point]"
17,O=[N+]([O-])c1ccc(O)c(C(C#Cc2ccccc2)N2CCOCC2)c1 (stereo unspecified),"inconclusive: 35.5 µM [inhibitor, partial curve]"
18,COc1ccc(S(=O)(=O)N2CCN(Cc3ccc4c(c3)OCO4)CC2)cc1,"inconclusive: 79.4 µM [inhibitor, single point]"
19,O=C(CN1C(=O)CCSc2ccc(S(=O)(=O)N3CCOCC3)cc21)Nc1ccccc1Cl,"inconclusive: 79.4 µM [inhibitor, single point]"
20,Cc1cc(S(=O)(=O)Nc2ccc3cn[nH]c3c2)c(C)cc1Cl,"inconclusive: 79.4 µM [inhibitor, partial curve]"
21,CN1CCN(c2nc(N3CCN(c4ccccc4)CC3)ncc2F)CC1,"inconclusive: 89.1 µM [inhibitor, single point]"
22,CCOc1ccc(NS(=O)(=O)c2ccc3[nH]cc(C(=O)N(C)Cc4ccccc4)c(=O)c3c2)cc1,"inconclusive: 3.98 µM [inhibitor, full curve, poor fit]"
23,O=C(Cn1cnc([N+](=O)[O-])n1)c1ccc(O)c(O)c1,active: 79.4 µM
24,OC(C#Cc1ccccn1)c1cccs1 (stereo unspecified),active: 7.08 µM

row,SMILES,Potency
1,C=CC#CC[N+]1(CC#Cc2ccccc2)CCOCC1,"inconclusive: 70.8 µM [inhibitor, single point]"
2,Cc1cccc(C)c1NC(=S)N/N=C1\CC2CC=CC12 (stereo unspecified),inactive
3,Cc1ccc(-c2cn3cccc(C)c3n2)cc1,inactive
4,O=C(N/N=C/c1cc(Br)c(Br)o1)c1cc2ccccc2o1,"inconclusive: 79.4 µM [inhibitor, partial curve]"
5,Cc1ccc(-n2cccc2/C=C2\C(=N)N3N=C(C(C)C)SC3=NC2=O)cc1,"inconclusive: 39.8 µM [inhibitor, partial curve]"
6,CSc1nc(Cl)c(C#N)c(-c2ccc(C)cc2)n1,"inconclusive: 89.1 µM [inhibitor, single point]"
7,COCC(C)n1c(C)cc(C(=O)COC(=O)/C=C/c2cccc(F)c2)c1C (stereo unspecified),"inconclusive: 44.7 µM [inhibitor, partial curve]"
8,COc1cccc(C(=O)NC(=S)Nc2ccc(N3CCCC3)cc2)c1,active: 12.6 µM
9,Cc1cccc(NC(=S)NC2CC3CCCC(C2)N3Cc2ccco2)c1 (stereo unspecified),"inconclusive: 79.4 µM [inhibitor, single point]"
10,CCN(CC)C(=O)C1CCCN(C/C=C/c2ccccc2[N+](=O)[O-])C1 (stereo unspecified),"inconclusive: 79.4 µM [inhibitor, single point]"
11,COc1ccc(/C=N/c2sc3c(c2C#N)CCN(Cc2ccccc2)C3)c(O)c1,inactive
12,Cc1nc(C)c(-c2csc(Nc3cccc(O)c3)n2)s1,"inconclusive: 63.1 µM [inhibitor, partial curve, poor fit]"
13,Cn1c(NCCCN2CCOCC2)nc2c1c(=O)n(Cc1ccc(Cl)cc1Cl)c(=O)n2C,"inconclusive: 70.8 µM [inhibitor, single point]"
14,Cc1ccc(/C=C/c2onc(C)c2S(=O)(=O)N2CCC(C(=O)NCc3ccc(C)o3)CC2)cc1,inactive
15,CCOC(=O)C1=C(C)N=c2s/c(=C\c3cccn3C)c(=O)n2C1c1cccc(OC)c1OC (stereo unspecified),"inconclusive: 8.91 µM [inhibitor, full curve]"
16,O=C(CNc1ccccc1)c1ccc([N+](=O)[O-])cc1,"inconclusive: 44.7 µM [inhibitor, partial curve]"
17,CCOc1ccc(-c2nc(SCC(=O)Nc3ccc(C)c(C)c3)n3[nH]c(=O)cc3n2)cc1,active: 50.1 µM
18,Cc1cccc(NC(=O)CSc2nc(-c3ccccc3)cn2-c2ccccc2)c1C,"inconclusive: 20 µM [inhibitor, partial curve]"
19,Cc1ccc(C)c(-n2c(CCC(=O)O)ccc2-c2ccc(Cl)cc2)c1,active: 39.8 µM
20,COc1ccc(C(=O)NC(=S)NNC(=O)c2ccc3ccccc3n2)cc1,active: 79.4 µM
21,COc1ccc(C(c2nnnn2Cc2cccs2)N2CCN(c3ccc(F)cc3)CC2)cc1OC (stereo unspecified),"inconclusive: 44.7 µM [inhibitor, partial curve]"
22,COc1ccc(Cc2nnc(NS(=O)(=O)c3ccc(NC(C)=O)cc3)s2)cc1,inactive
23,COc1ccc(NC2CCCN(C(=O)c3ccc4[nH]c(C)c(C)c4c3)C2)cc1 (stereo unspecified),active: 44.7 µM
24,Cn1c(=O)c2c(-c3ccccc3Cl)n(-c3cc(Cl)ccc3O)cc2n(C)c1=O,"inconclusive: 8.91 µM [inhibitor, full curve, poor fit]"

row,SMILES,Potency
1,CC1(C)C=Cc2c(ccc3c2OC[C@H](c2ccc(O)cc2O)C3)O1,active: 50.1 µM
2,COc1ccc(NC(=O)c2ccc(C#N)cc2)cc1NS(=O)(=O)c1ccc(F)cc1,inactive
3,Cc1ccc(C(=O)Nc2sc3c(c2C#N)CCCCC3)cc1C,inactive
4,O=[N+]([O-])c1ccc(-c2nnc(CNC3CCCC3)o2)cc1,"inconclusive: 35.5 µM [inhibitor, partial curve]"
5,COC(=O)c1c(-c2ccc(C)cc2)csc1N,"inconclusive: 50.1 µM [inhibitor, partial curve]"
6,Cc1nc(Nc2ccccc2Cl)sc1C(=O)Nc1ccccc1,"inconclusive: 70.8 µM [inhibitor, single point]"
7,N#CCCN(C(=O)COC(=O)CCc1c[nH]c2ccccc12)c1ccc(F)cc1,"inconclusive: 79.4 µM [inhibitor, single point]"
8,CCCOc1cccc(C2C(C(=O)c3cc4ccccc4o3)=C(O)C(=O)N2c2cc(C)on2)c1 (stereo unspecified),"inconclusive: 31.6 µM [inhibitor, full curve]"
9,O=C(N/N=C/c1ccc(C(F)(F)F)cc1)c1ccc(O)cc1,inactive
10,COc1cc(CNC2CCCc3ccccc32)cc(OC)c1OC (stereo unspecified),active: 70.8 µM
11,O=C(CC(c1ccccc1)c1ccccc1O)NCc1ccccc1Cl (stereo unspecified),inactive
12,COc1ccc(NC(=O)C/C(C)=N/NC(=O)c2cnccn2)c(OC)c1,inactive
13,Cc1c(C)n(C)c2ccc(C(=O)Nc3cccc4ccccc34)cc12,"inconclusive: 39.8 µM [inhibitor, partial curve]"
14,COc1ccc(Nc2nnc(Cc3ccc(Cl)cc3)c(=O)[nH]2)c(OC)c1,"inconclusive: 89.1 µM [inhibitor, single point]"
15,CCOc1ccc2nc(N3CCCC(C(=O)NCCCN4C(C)CCCC4C)C3)sc2c1 (stereo unspecified),"inconclusive: 79.4 µM [inhibitor, single point]"
16,CCN(c1ccc(NC(=O)CSc2nnc3nc(C)cc(C)n23)cc1)C(C)C,"inconclusive: 89.1 µM [inhibitor, single point]"
17,Cc1csc(NC(=O)CSc2ccccc2F)n1,inactive
18,CCCCC(c1nnnn1CC1CCCO1)N1CCN(c2cc(Cl)ccc2C)CC1 (stereo unspecified),"inconclusive: 89.1 µM [inhibitor, single point]"
19,Cc1ccccc1NC1(C#N)C(=O)Nc2ccccc21 (stereo unspecified),"inconclusive: 100 µM [inhibitor, single point]"
20,CC(C)NC(=O)CN(C(=O)CCC(=O)Nc1nccs1)c1ccc(C(C)C)cc1,"inconclusive: 89.1 µM [inhibitor, single point]"
21,O=C(Oc1cccc2cccnc12)c1ccc(N2C(=O)C3C4CCC(C4)C3C2=O)cc1 (stereo unspecified),active: 50.1 µM
22,C(=N\N1CCN(C2c3ccccc3-c3ccccc32)CC1)/c1ccccn1,active: 20 µM
23,COc1ccccc1NC(=O)CC(NCc1ccccc1)C(=O)O (stereo unspecified),"inconclusive: 79.4 µM [inhibitor, single point]"
